Our source for the self-cleavage values is the RNAGym collection of RNA variant scans (doi:10.7554/elife.90254).

The chains are these.
B1: LINE1-full (parent)
chain: UACGUAGGUGGUUUUCCCCUGAUAGUGCUAAGGGGGCCUGGAAGUUUGGACUGGGCAGAGCUCAACACAGCGUGGCAAAGUGGCUGUGGCUAGACUGCCUCUCUGGAUUCCUCGUCACUCAGCAGGGCAUCUCUGAGAGAAAUGCC

The source gives no read counts; variants with many changes may rest on few reads.

The variants in the series derive from B1. The series can be described thus: self-cleavage, relative activity (ratio to wild type); higher = more cleavage; in vitro, sequencing; the parent is a self-cleaving ribozyme.
Consider U20C U73A U91C U132A U134C, for which the self-cleavage was found to be 0.43.
C19U A107G U134A: the self-cleavage is 0.
As to C19U G32A U102C, the self-cleavage is 0.92.
As for C19U U46C U73A, the self-cleavage worked out at 1.7.
As to C19U A59G A69G, the self-cleavage came out at 0.21.
As to U20G U26G A42U A138G A142C, the self-cleavage turned out to be 0.6.
Under U20C U47C A140G stands 1.8; under G21A U119A A136G, 0.82.
Take U20C G83U A129G A142G: the self-cleavage was 0.42.
With U20C U47C A124U, the self-cleavage was found to be 1.98.
With U20C U26C A78U, the self-cleavage stood at 2.4.
With U20C U73A U115C, the self-cleavage was 1.38.
On to U20C U52A A124G, for which the self-cleavage turned out to be 0.8.
Consider U20C G33A A64G U87C, for which the self-cleavage amounted to 0.27.
As for C19U U104C C110G, the self-cleavage was 0.9.
For the variant U20A U85C U87A, the self-cleavage came out at 0.08.
Consider U20A U46C A64G, for which the self-cleavage amounted to 0.22.
Consider C19U U87C U115A, for which the self-cleavage is 0.07.
For U20C C90U A141G U143G, the self-cleavage was 0.01.
For the variant U20A U62C A64C U134C, the self-cleavage came out at 0.06.
As to C19U A107G U108A, the self-cleavage came to 1.07.
Consider U20C U39A A59G A124G, for which the self-cleavage is 0.16.
On to U20A A50G G54A A78C, for which the self-cleavage amounted to 0.26.
Regarding U20C A107G A136G, the self-cleavage was 1.2.
For the variant U20C A65G U96C A138G A142U, the self-cleavage was determined as 0.
As to U20C U29C A136G, the self-cleavage turned out to be 1.84.
In the case of U20C U104C A141G, the self-cleavage came out at 1.95.
Consider U20C A67G U130A, for which the self-cleavage is 1.92.
Under U20G A67G G114A A141G stands 0.41.
On to U20C U39C G137A, for which the self-cleavage was found to be 1.94.
Consider U20A G58A A79G A117U A121U, for which the self-cleavage was 0.06.
As to U20C U26C A67G A79G A138G, the self-cleavage turned out to be 0.
As to U20C U52A U130C, the self-cleavage stood at 1.93.
With C19U A42G A59G A107G, the self-cleavage was 0.
In the case of U20A G36U U46A it was 1.06.
As to G21A A64C A65G A124G A136G, the self-cleavage was determined as 0.
Regarding U20A A42G A141G, the self-cleavage amounted to 1.31.
Consider G21U U73A G75U A121U, for which the self-cleavage turned out to be 1.84.
For C19U G48A A59G C71U, the self-cleavage is 0.08.
With U20A U26A A92G U96C G105A A107U U115C, the self-cleavage was 0.
Turning to U20A G32A U47C A79G U87C, the self-cleavage amounted to 0.26.
Turning to U20C A31U U109A, the self-cleavage came out at 0.88.
As to U20A U39A A78G, the self-cleavage was 1.02.
Under U20A C37U U45C U130C stands 1.46; under U20A A57G A141U U143A, 1.24; under C19U A42G A59U U109C A138G, 0.8.
U20A U23C A64G U143A: the self-cleavage is 0.34.
For U20C A24U A50C, the self-cleavage was 1.23.
U20C G34A U100C U109C U119C: the self-cleavage stood at 0.78.
Take U20A G21A A67G U81A: the self-cleavage amounted to 0.46.
Turning to C19U A50G A142G, the self-cleavage amounted to 0.86.
As to U20C A31G A138G, the self-cleavage was 1.58.
Regarding U20A U104C G105A A124G, the self-cleavage was 1.71.
Regarding U20A A77G G88A C99A U134C, the self-cleavage was determined as 0.08.
U20C U26A U45C U47A A64U A136G: the self-cleavage was 0.35.
With U20C A42G A43G U102C, the self-cleavage worked out at 2.12.
Under U20A G54A A94G A141G stands 0.05; under U20C U26C U39C A124G A136G, 1.23.
With C19U C28G U130C U143A, the self-cleavage was found to be 1.29.
In the case of U20C A22G A57U U81C C95U it was 0.11.
On to C19U A30U A42G, for which the self-cleavage worked out at 1.01.
With U20A A64U U96C U130C, the self-cleavage was 0.02.
Under U20C A22U G125A A138U stands 1.77; under U20A A30G U85C, 0.95.
In the case of U20G U45C C98U it was 0.46; in that of U20A A43G U109A, 1.17.
Under G21A U112C C113U stands 0.39; under U20A A59G U112C A140G, 0.13.
Take U20C U62A U119C: the self-cleavage amounted to 0.13.
Turning to U20G U47A U109C U115A, the self-cleavage was 1.11.
Under U20G U73A U81C C145G stands 0.68.
For the variant U20C A42G U96C, the self-cleavage came out at 0.18.
As to U20C G32A G49A, the self-cleavage came out at 0.45.
Consider C19U U52C G86A A92U, for which the self-cleavage is 0.
For the variant G21U A64G A78G A79G A141G, the self-cleavage came out at 0.
As for U20C U29C A121C, the self-cleavage was 2.
Turning to U20C U26A A30G A142G, the self-cleavage amounted to 0.42.
C19U G75C G114A U115A: the self-cleavage was found to be 0.58.
As to C19U A64G A77G, the self-cleavage was 0.15.
For the variant A22C A67G A140G, the self-cleavage turned out to be 1.69.
For U20A U45C U46C, the self-cleavage turned out to be 1.24.
For C19U A30U C51U A59G, the self-cleavage is 0.2.
Take U20A A64U U96C U102C: the self-cleavage stood at 0.
Regarding U20A A22G U109C A121U, the self-cleavage was determined as 0.48.
On to U20G U112C A142C, for which the self-cleavage was determined as 0.44.
Turning to C19U A31U U39C, the self-cleavage came out at 0.64.
As for U20C A78U A107G, the self-cleavage was determined as 1.46.
C19U U45C A50G A78G: the self-cleavage stood at 0.97.
For U20C A30U C37A A64U U91A A107G, the self-cleavage is 0.
Take G21A U39C A59U: the self-cleavage was 0.66.
U20C U23A U132A: the self-cleavage was found to be 0.69.
On to U20A U81G A136U, for which the self-cleavage is 1.
Regarding U20C A42G A57G, the self-cleavage was found to be 2.78.
With U20A A24G A129C, the self-cleavage turned out to be 1.91.
In the case of U20A U87C A129G U143A, the self-cleavage was 0.33.
For C19U A59U A142G, the self-cleavage was 0.77.
Under U20A U47C A64G C95U A117U stands 0; under U20C A57C A129U, 0.17; under U20G A42G U96C A141G, 0.1.
On to U20C U39A U100A U132C, for which the self-cleavage came out at 0.44.
Under U20C G114A A121G A129G stands 1.23; under U20C U104C A140G, 1.28; under G21A A50G A141G, 0.66.
On to G21A A30G A79U, for which the self-cleavage is 1.58.
For U20C C111U U112C A142G, the self-cleavage came to 1.62.
For C19U U100A A142G, the self-cleavage was 0.55.
For U20C A57G A67G, the self-cleavage was 0.
In the case of C19U A65G U91A it was 0.05.
In the case of G21A A31G G70U A142G, the self-cleavage is 0.04.
As for C19U A43G A65U U104C, the self-cleavage worked out at 0.49.
Under U20A U47A A57C A59G stands 0.1; under U20C U23C U119C, 1.84.
As for C19U U26C G33A A78G U115C C120U U134C, the self-cleavage worked out at 2.09.
In the case of U20C A79G A138G it was 1.24; in that of C19U U29A U46A A50G A64G U112A A136G, 0.35; in that of U20A A31G U46C A64G U87A U130A U143C, 0.
Regarding U20C A78G U87C G114A U132C A141G, the self-cleavage was 0.
For U20C A31G A64U U87C U119C, the self-cleavage was determined as 0.
With U20A G127A G135A, the self-cleavage stood at 1.9.
With U20C U47C A77G, the self-cleavage came out at 1.06.
Turning to U20A U39A A69U, the self-cleavage was 0.09.
Consider C19U A57G A65G, for which the self-cleavage was 0.35.
With U20C A31G U100C U130A U132C, the self-cleavage amounted to 1.75.
Under U20C G44C A92G stands 0; under U20C A43U U119C, 1.39; under A22C C28G U112A, 1.09.
Take U20G A42G U73C C90U A107G U112C: the self-cleavage came to 0.
Regarding C19U U46A A50U U143C, the self-cleavage was 1.18.
On to G21A G34C U102A, for which the self-cleavage was determined as 1.78.
Turning to U20A U85A U96A C110G A136U A142G, the self-cleavage worked out at 0.1.
Consider U20G U26A U102C A107G, for which the self-cleavage was 1.02.
Under U20C U39A U45C A59G stands 0.
In the case of U20C G48A U115C G126U it was 1.46.
Under U20A A64G U96C A121G stands 0; under C19U U62C U119C, 0.02.
Take U20C A64G U112C: the self-cleavage was 0.16.
In the case of U20C U81G U102C U115A, the self-cleavage came to 0.63.
U20A U39C A107G: the self-cleavage amounted to 0.97.
Regarding U20C G48A U81C, the self-cleavage was found to be 1.38.
Under U20C A78G U102C C128U A136G stands 2.13; under U20C G54A U130A, 0.46; under U20A A65G G89A A142G, 0.03.
As for U20A C116A U130C A140U, the self-cleavage is 0.46.
For the variant C19U G32A U91A, the self-cleavage was 0.49.
As to C19U G34U U87A, the self-cleavage turned out to be 0.08.
In the case of U20G A121G A124G it was 0.46; in that of U20C A57U U96C G126A, 0.03.
Take U20C A42U C63U U87C: the self-cleavage worked out at 0.14.
For the variant U20C U102C U115C G126A, the self-cleavage is 2.92.
C19U A64G U132C: the self-cleavage was found to be 0.11.
As for U20C A24G C56A A117U, the self-cleavage is 0.2.
With C19U U73A A79G A138G, the self-cleavage was found to be 0.71.
For the variant U20A A57U U81C U134C, the self-cleavage is 0.
In the case of U20C G83A U109C A117U A140G A142U it was 0.25.
With C19U A31U G41A U62C A129U, the self-cleavage is 0.07.
In the case of C19U U119C C133A it was 0.77; in that of C19U A65G U96C, 0.08; in that of U20A U45C A141G, 1.1.
Turning to U20A A79U A117G, the self-cleavage came to 1.98.
Take U20C U26G U39A: the self-cleavage amounted to 1.99.
As to U20C A24U A64U A69G U100C U143C, the self-cleavage stood at 1.35.
Under U20C A22G G105A A107U stands 0.53; under C19U G60U U87C, 0.04.
For U20C U46C U73A, the self-cleavage was 1.51.
As to C19U U45A A64U U132A, the self-cleavage worked out at 0.66.
Turning to U20C C116U U119C A141G, the self-cleavage stood at 2.05.
Under U20C U81A U85A U104G stands 0.2.
